Measurements taken from the supplement of paper PMC3334620.
Whole data set: some 33,000 sequences, median “E-score (-0.5 to 0.5)” near -0.013, cut for the highest 2% near 0.3. The list shows a part of the results.

These sequences were tested against T1, Msn1 (UniProt P22148) (assay: PBM E-score (8-mer binding enrichment) (E-score (-0.5 to 0.5)); higher = stronger / more preferred TF binding; most listed sequences are background and not binding sites). Settings: protein concentration: 200 nM; construct: GST-full length.
T1 sequence: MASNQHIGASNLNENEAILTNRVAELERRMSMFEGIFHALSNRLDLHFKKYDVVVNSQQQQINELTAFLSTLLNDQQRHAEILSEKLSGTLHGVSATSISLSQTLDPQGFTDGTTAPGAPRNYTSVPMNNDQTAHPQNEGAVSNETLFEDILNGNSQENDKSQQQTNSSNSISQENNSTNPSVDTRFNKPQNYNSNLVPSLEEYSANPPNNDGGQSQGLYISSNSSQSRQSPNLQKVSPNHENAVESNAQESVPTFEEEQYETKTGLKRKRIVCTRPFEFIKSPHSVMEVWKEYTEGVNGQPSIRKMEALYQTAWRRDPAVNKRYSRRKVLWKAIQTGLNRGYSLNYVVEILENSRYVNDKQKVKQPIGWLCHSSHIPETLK
Method in brief: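 The E-score, a modified Wilcoxon-Mann-Whitney statistic, was computed by the Universal PBM Analysis Suite for every ungapped eight-base word pooled with its reverse complement. Scans behind it were normalised with masliner after bound GST-tagged yeast transcription factors were detected with fluorescent anti-GST. The proteins, at about 100-200 nM, had been applied to universal all-10-mer Agilent arrays made double-stranded by primer extension.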

Sequence	PBM E-score
CAAAGGAC	-0.0287
CGATGGTA	-0.00123
AGCTAACT	-0.0808
ACAGTATC	0.0424
CAAGATTC	0.00889
ACGCTTGG	-0.103
CTGCTTGA	-0.134
AGATAGAC	0.176
GAATCAGA	0.00982
ATATATGC	0.187
CGCGCATC	-0.202
ACGCAGAT	0.066
CTCCTTCC	-0.326
ATCTGGGA	-0.0476
CAAGGGCG	-0.191
GACGGACC	-0.0404
GCTATGGA	-0.0554
AGGGAACT	-0.104
ATGAATAA	-0.00861
AGTCGGAA	0.0979
TCCAGCAA	0.133
GGGTGACA	-0.021
CGGTTTAG	0.0359
AGCAGAAT	0.0631
AATGATTG	0.0246

Sequence	PBM E-score
AGGTTCGA	0.0702
ACAAAGCC	0.195
TAAACACA	0.113
ATGTCAAC	0.263
AGGATCCG	-0.175
GCTCTAAA	0.0524
ATAAAAGA	0.0146
CCTATTCC	-0.0368
GCGTCGGA	0.102
AGATCGGG	-0.0957
ATCACGTC	0.0803
AGACTGTA	-0.0447
AATGGTGG	-0.173
ACTGTCGG	-0.0418
AATGAAAA	0.179
TCCTGAAA	0.105
AGGTTATC	-0.165
CCGTCCAC	0.0619
CTACGATA	0.143
GTGGCGCA	-0.11
TCGACACA	0.133
ATAGAGTA	-0.0249
GGTGCGAA	-0.057
GGTTCAAC	-0.074
AAGATAGT	0.00843

Sequence	PBM E-score
GAACACGA	0.169
ACAAGCCG	0.0757
CCCAGATA	-0.155
ATTGACCG	0.0223
ATCTTATA	0.185
ACCATTCA	-0.105
CAACGCGG	0.0564
ACAGCCGC	-0.0958
ACTTTGTC	0.41
CCAGCTCA	-0.139
GGGGCGTA	-0.279
CACTACCG	-0.181
CCGGCTGA	-0.0276
AAGAAAAG	0.177
TCGTACAA	0.294
CCAAGCCA	-0.0784
GAAGGCCA	-0.328
AATAACAA	0.189
CACTACTG	0.0319
GAAACTAA	-0.0367
GCTATGAA	-0.00947
ATTGTACG	0.151
GTCCAGTA	0.192
AACACAAT	0.109
ATACACGC	0.02

Sequence	PBM E-score
CTGCCCCA	-0.0558
ATCGGGTG	0.0905
AATCCGCA	0.137
AAGGTATC	-0.173
CTATGGTC	-0.0526
CTGGCGTA	-0.252
TCCGGTCA	0.0024
AATGTGCT	0.0565
AGGGCCTA	-0.165
CTGGCATC	-0.195
ACGCTTTC	-0.0766
CACCTTGC	0.0437
TGGCTACA	0.0201
AAGGGAGA	-0.179
CAAACAAA	0.0138
GATCATGA	0.101
CTCATCAC	-0.201
GCTGCATA	0.0815
AATGGCCA	-0.0941
AGCTTTCA	-0.0202
ACCCCGAT	-0.0736
AAGTGCTA	-0.0669
GGTTGGAC	0.196
CGACGGTC	-0.161
CAAACAGC	0.0478

Sequence	PBM E-score
AGCGTCGA	0.0853
TCCACTAA	0.0462
CGCCCGAG	0.0386
ACTGCGTA	-0.188
ATAACATA	0.136
CTGGGTAA	0.0366
ACTCCTAA	-0.0352
CGCGCAAA	0.205
AAGGGCCA	-0.18
CCATATTA	0.21
GGCCTCTA	-0.261
GAGATAGA	0.0282
TCCATGGA	0.248
AAATGCAC	-0.0162
TATGCCCA	-0.0374
ATCAAGTG	0.0141
TAGTGTAA	0.107
AAACCCGA	0.298
AAGGAAGA	0.0146
ACCTGCTG	0.0675
CGCGAGAC	0.128
CCCATGTA	0.0749
AGGCATGC	0.0372
AACTTCAG	-0.0437
AGGAGTTC	-0.199

Sequence	PBM E-score
GTGATTGA	0.128
CGCAAACC	-0.0969
AAGTGTAC	0.182
GGTTGAAA	0.13
CTGGCCTC	-0.248
CCTCTAAG	-0.0853
GGGCGTAA	-0.124
GACTTCTA	0.00831
AGGCAGAC	-0.0708
ACTCGACT	-0.104
CCTAAGTC	-0.135
AGTGAAAT	0.149
GAGCCCAC	-0.265
CCTGAACA	-0.00749
ACGGTGGA	-0.202
CAAAGTAG	-0.0366
AATCTCCA	-0.0286
CGGGGGAC	-0.264
ACTATAGG	-0.121
CCCTGAGC	-0.142
ACTTCACC	0.119
AGCTTATA	-0.112
CATTGGAA	0.0709
ACCATCAG	-0.168
CGTCTGAG	-0.0146

Sequence	PBM E-score
ATAATTGC	-0.0717
CAACGTAA	-0.142
CGATAAGA	0.133
AGAGTTGG	-0.0301
GGTGGCAA	-0.068
CATGTCTC	0.343
CAAGGTAC	-0.0472
CGTTCATC	0.0608
ATACGTAC	0.0723
ATTACAGA	0.186
AAGAAGTG	-0.0155
ATTGTAGG	0.201
CCCTGGAG	-0.263
AGGGGACA	0.386
CCAAATTC	0.0869
ATGACCCA	-0.0666
CCCATAGC	-0.299
CTATATTA	0.17
CCTACCTC	-0.19
CCCCCGTA	-0.389
GTCGGGAA	0.0732
TACTTCAA	0.16
CTACTGAA	-0.0253
CGGGCAAG	0.0918
